# Experimental data as given in the supplement of paper PMC11417369.
# This is one part of the list.
# Test system: PfAP2-HC AP2 domain (GST-tagged)
# Assay: gcPBM binding intensity (ln(normalized median fluorescence intensity)); higher = stronger DNA binding
# Method in brief: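 GST-tagged P. falciparum DNA-binding domains produced in E. coli were incubated for 1 h on an Agilent 4 × 180k array of primer-extended double-stranded 36-bp intergenic genomic probes with negative controls. Binding intensity is the highest Masliner-normalised natural-log median intensity across replicate spots of either probe orientation, with bound protein detected by Alexa488 anti-GST antibody at 488 nm.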
row,Sequence,gcPBM binding intensity (ln)
1,TTTTTTTCTTTTGGGAGTACCAACATTTTCACATAT [XGTACX_site1371],9.85
2,CTATGCCCCATATAAACACACAAATAAAAAGAATAT [CACACA_site2681],9.89
3,AAAAAAAAAAGACACACACACACAAATACATACACA [CACACA_site6472],10.8
4,TGAATAAAGATATATACACACATATAGGTATATATC [CACACA_site6870],9.86
5,TGCTTATATTTTTATACACACAAGATACTTTTTGTT [CACACA_site1535],9.89
6,TAAGAATTGAAAAAATGTACACAATATAAAATTGAA [XGTACX_site698],9.63
7,AAAACAAATAAGTAAACACACATATAAAATCTATAT [CACACA_site7262],10.1
8,CCTATTTATTTATACACACACATATATAAATAAATA [CACACA_site7417],9.89
9,TTATGTAAATGCTTATGTACTTATTACAATATTTTT [XGTACX_site4057],9.81
10,AAAAAGAAAAAAAAATGTACATAAAGTCTAATGATA [XGTACX_site4781],9.71
11,TTTATTACTATGTAAACACACATGCAATATATGTTA [CACACA_site1114],9.72
12,ATATTATATAAATACACACACACATGCATGCACATA [CACACA_site4236],11.2
13,AAAAAGAATAAATAAATAAATAAATATATATATATA [GTGCAC_negctrl_site584],9.79
14,TATTAATCATATAAATGTACGTATATATATTTTTCT [XGTACX_site1421],9.68
15,ATATATATATATATAACACACGTGTATATATATGTA [CACACA_site3644],9.83
16,CAATCATAGAAAAACAGTACGTGTAGCAAACATCCT [XGTACX_site4889],9.76
17,TATAATATATTATAACGTACAAATATATATATAAAA [XGTACX_site6581],9.72
18,AAAAAAAAAAAATATATATATATATATATATATATA [CACACA_negctrl_site1606],10.1
19,TATATATATTATATATGTACATATATTTTTTTTTTT [XGTACX_site127],9.7
20,ATTTATATTACAAAAAGTACACACATAAATAAATAC [XGTACX_site1827],9.8
21,GAAAATATAAAAAAAAGTACATTTTCTCTAAATATA [XGTACX_site2441],9.54
22,AAAAAGGGTATTATTACACACACGTAAATATTAAGA [CACACA_site4233],10.3
23,AAAAAAAAATTATATACACACATATAAATATATATA [CACACA_site1197],9.72
24,CTATATAATATGAGCACACATAAGATTTGGTGTTAT [CACACA_site744],9.73
